Measurements from PubChem BioAssay AID1745853 (National Center for Advancing Translational Sciences (NCATS), 2022).
Several values for one entry are separate records, joined by “and”; a condition that tells them apart may be missing. Equal values may be shown once. The list shows a part of the results. Further columns of the screen follow, without active or inactive calls.

Experiments:
Experiment in all cases: Primary Screen for Target Class Profiling of Small Molecule Inhibitors of Methyltransferases
[1] = biological target: Glycine N-methyltransferase (Homo sapiens) (UniProt Q14749); details: purified enzyme, MTase-Glo SAH luminescence; measured here: GNMT inhibition; at 40 µM; stronger effect = lower value
In short: (§1)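 Each enzyme was reacted with SAM and its substrate, with compounds tested once at 40 uM; SAH formed was read by MTase-Glo luminescence.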

[2] = biological target: Guanidinoacetate N-methyltransferase (Homo sapiens) (UniProt Q14353); details: purified enzyme, MTase-Glo SAH luminescence; measured here: GAMT inhibition; at 40 µM; stronger effect = lower value
In short: as §1

[3] = biological target: Histamine N-methyltransferase (Homo sapiens) (UniProt P50135); details: purified enzyme, MTase-Glo SAH luminescence; measured here: HNMT inhibition; at 40 µM; stronger effect = lower value
In short: as §1

[4] = biological target: Nicotinamide N-methyltransferase (Homo sapiens) (UniProt P40261); details: purified enzyme, MTase-Glo SAH luminescence; measured here: NNMT inhibition; at 40 µM; stronger effect = lower value
In short: as §1

[5] = biological target: Phenylethanolamine N-methyltransferase (Homo sapiens) (UniProt P11086); details: purified enzyme, MTase-Glo SAH luminescence; measured here: PNMT inhibition; at 40 µM; stronger effect = lower value
In short: as §1
% is scaled to controls: 0 for no effect and ±100 for the full control effect.

Row | Structure (SMILES) | activity change, negative = inhibition [1] | activity change, negative = inhibition [2] | activity change, negative = inhibition [3] | activity change, negative = inhibition [4] | activity change, negative = inhibition [5]
1 | CCOCCCNC(=O)N1Cc2ccccc2-n2cccc2C1c1ccc(C(C)C)cc1 (stereo unspecified) | -4.74% | 4.58% | -3.67% | -12.6% | -0.005%
2 | CCOc1ccc(NC(=O)N2Cc3ccccc3-n3cccc3C2c2ccccc2Cl)cc1 (stereo unspecified) | 1.66% | 1.94% | -4.42% | -1.41% | 0.666%
3 | CCC1=CC2CN3CCc4c([nH]c5ccccc45)[C@@](C(=O)OC)(C2)[C@@H]13 | -0.556% | -15% | -7.99% | -29% | -4.42%
4 | Cc1ccc(NC(=O)N2Cc3ccccc3-n3cccc3C2c2cccs2)cc1F (stereo unspecified) | 10.7% | 5.58% | 3.31% | -2.64% | 4.31%
5 | CCc1ccc(C2c3cccn3-c3ccccc3CN2C(=O)Nc2ccc(C)cc2)cc1 (stereo unspecified) | 8.41% | 3.47% | 1.88% | -1.33% | -0.325%
6 | NC(CCCCCP(=O)(O)O)C(=O)O (stereo unspecified) | 9.5% | 8.8% | 11.8% | -1.6% | 4.06%
7 | CCC1c2cccn2-c2ccccc2CN1C(=O)Nc1ccc(F)cc1F (stereo unspecified) | 3.57% | 2.86% | 1.71% | -1.46% | -2.35%
8 | CCC1c2cccn2-c2ccccc2CN1C(=O)Nc1cccc(Br)c1 (stereo unspecified) | -1.63% | 0% | 5.53% | 1.4% | 6.76%
9 | CCOc1ccc(C2c3cccn3-c3ccccc3CN2C(=O)Nc2ccc(CC)cc2)cc1 (stereo unspecified) | -1.42% | 3.32% | -3.08% | -6.58% | -0.503%
10 | COc1ccc(C2c3cccn3-c3ccccc3CN2C(=O)Nc2ccc(F)cc2)cc1 (stereo unspecified) | 9.82% | 2.37% | 2.55% | -1.73% | 4.64%
11 | CN1Cc2c(ccc3c2OCO3)[C@@H]2[C@H]1c1cc3c(cc1C[C@@H]2O)OCO3 | -2.89% | -1.36% | 6.32% | -20.5% | -2.77%
12 | O=C(NC1CCCC1)N1Cc2ccccc2-n2cccc2C1c1cccs1 (stereo unspecified) | 0.856% | 1.23% | -5.42% | -7.83% | -0.985%
13 | CCc1ccc(C2c3cccn3-c3ccccc3CN2C(=O)NCc2ccccc2)cc1 (stereo unspecified) | 8.24% | 0% | 0.267% | 2.39% | 4.21%
14 | CN1CCCCC1Cn1cc(C(=O)c2cc([N+](=O)[O-])ccc2I)c2ccccc21 (stereo unspecified) | -1.66% | -11% | -16% | -46.2% | -9.01%
15 | Cc1ccc(C2c3cccn3-c3ccccc3CN2C(=O)Nc2cccc(C)c2C)cc1 (stereo unspecified) | 9.95% | 0% | -1.46% | 0.096% | 3%
16 | Cc1ccccc1NC(=O)N1Cc2ccccc2-n2cccc2C1c1ccccc1 (stereo unspecified) | 8.13% | 0% | 0.695% | -4.91% | 1.32%
17 | COc1ccc(OC)c(NC(=O)N2Cc3ccccc3-n3cccc3C2c2ccccc2)c1 (stereo unspecified) | 8.65% | 0.497% | -3.42% | -9.07% | -4.16%
18 | CC[C@H]1/C=C\C=C/C[C@@H](C)[C@H](O)[C@@](C)(O)C(=O)[C@@H](C)[C@H](O)[C@@H](C)C(=O)[C@@H](C)[C@H](O)[C@@H](C)/C=C\C(=O)O[C@@H]2[C@H](C)[C@H](CC1)O[C@]1(CC[C@H](C)[C@H](C[C@@H](C)O)O1)[C@H]2C | -1.29% | 21.6% | 6.72% | 5.56% | 8.47%
19 | C[C@@H]1O[C@@H](O[C@H]2CC[C@@]3(C)C(CC[C@@H]4C3CC[C@]3(C)[C@@H](C5=CC(=O)OC5)CC[C@]43O)C2)[C@H](O)[C@H](O)[C@H]1O (stereo partly specified) | 5.32% | -0.203% | 8.91% | -9.38% | 1.68%
20 | CCc1ccc(C2c3cccn3-c3ccccc3CN2C(=O)Nc2cc(C)ccc2OC)cc1 (stereo unspecified) | 14.3% | 0% | 6.15% | 2.45% | 8.19%

Row | Structure (SMILES) | activity change, negative = inhibition [1] | activity change, negative = inhibition [2] | activity change, negative = inhibition [3] | activity change, negative = inhibition [4] | activity change, negative = inhibition [5]
21 | COC1CC(OC2CCC3(C)C(CCC4C3CCC3(C)C(C5=CC(=O)OC5)C(OC(C)=O)CC43O)C2)OC(C)C1OC1OC(CO)C(O)C(O)C1O (stereo unspecified) | 0.889% | -2.79% | 8.79% | -12.8% | 2.5%
22 | C[C@](O)(CS(=O)(=O)c1ccc(F)cc1)C(=O)Nc1ccc(C#N)c(C(F)(F)F)c1 |  | 1.1% |  | -15.5% | 1.61%
23 | CCOc1ccc(C2c3cccn3-c3ccccc3CN2C(=O)Nc2ccc(OC)cc2OC)cc1 (stereo unspecified) | -1.25% | 1.84% | 2.46% | -1.59% | 3.85%
24 | COC(=O)N1CCN(C(=O)Cc2ccc(Cl)c(Cl)c2)C(CN2CCCC2)C1 (stereo unspecified) | -3.27% | 6.54% and 10.8% | 5.62% | -10.8% and -8.93% | 3.79% and -1.49%
25 | O=C(NCc1ccc(F)cc1)N1Cc2ccccc2-n2cccc2C1c1ccccc1 (stereo unspecified) | 3.98% | 3.94% | -0.071% | -0.814% | 5.57%
26 | CC(C)NC(C)Cc1ccc(I)cc1 (stereo unspecified) | -12.8% | 5.95% | -19.4% | -5.84% | 2.23%
27 | CC(C)=CCCC1(C)C=Cc2c(O)c3c(c(CC=C(C)C)c2O1)OC12C(=CC4CC1C(C)(C)OC2(C/C=C(/C)C(=O)O)C4=O)C3=O (stereo unspecified) |  | 1.68% |  | -35.4% | -2.35%
28 | O=C(O)C(=O)c1cn(Cc2ccccc2)c2ccc(-c3ccc(OC(F)(F)F)cc3)cc12 | -13.3% | 0.295% | 9.15% | -23.6% | -8.44%
29 | CC[C@H]1C2CC3[C@@H]4N(C)c5ccccc5[C@]45C[C@@H]([C@H]2[C@H]5O)N3[C@@H]1O | -2.67% | -8.39% | 0.996% | -17.3% | -7.56%
30 | COCCCNC(=O)N1Cc2ccccc2-n2cccc2C1c1ccc(N(C)C)cc1 (stereo unspecified) | 5.64% | 4.18% | -9.36% | -2.43% | 2.18%
31 | CC(=O)OC1CC(O)C2(C)C(CC(OC(C)=O)C3(C)C2CCC2(C)C(c4ccoc4)C(=O)C4OC423)C1(C)C (stereo unspecified) | 0.307% | 5.07% | 5.91% | -11.9% | 3.93%
32 | CCC1c2cccn2-c2ccccc2CN1C(=O)Nc1ccccc1 (stereo unspecified) | 0.764% | 0% | -2.41% | -0.47% | 6.26%
33 | N#Cc1cccc(-c2ccc3n(c2=O)C[C@H]2C[C@@H]3CN(C(=O)c3ccc(F)cc3)C2)c1 | -6.34% | -5.56% | -3.75% | -12% | -31.3%
34 | Cc1cc(CN2CCC3(C2)C(=O)N(C)c2ccccc23)no1 (stereo unspecified) | -10.6% | -4.36% | -3.64% | -17% | -11.4%
35 | CCCN(CCC)C1Cc2cc(OC)c(OC)cc2C1 | 8.93% | 14.8% | 15% | -1.84% | 1%
36 | CCOc1ccc(C2c3cccn3-c3ccccc3CN2C(=O)NCc2ccco2)cc1 (stereo unspecified) | -2.44% | 5.89% | -0.378% | -2.89% | 1.72%
37 | COc1cc(N2CCN(C)CC2)ccc1N | -19.1% | -80.8% | -20.7% | -52.5% | -61.7%
38 | C[N+]1(C)C2CCC1CC(OC(=O)C(CO)c1ccccc1)C2 (stereo unspecified) | -3.26% and 2.96% | 2.43% and 14% | 2.1% and 10.4% | -8.09% and -3.38% | 0.515% and 6.31%
39 | COc1cccc(NCC(F)Cn2c3ccc(Br)cc3c3cc(Br)ccc32)c1 (stereo unspecified) | 2.88% | -27.6% | 2.56% | -37.7% | -6.16%
40 | CCOc1ccc(NC(=O)N2Cc3ccccc3-n3cccc3C2C(C)C)cc1 (stereo unspecified) | 0.487% | 0.136% | 7.5% | 6.37% | 7.74%

Row | Structure (SMILES) | activity change, negative = inhibition [1] | activity change, negative = inhibition [2] | activity change, negative = inhibition [3] | activity change, negative = inhibition [4] | activity change, negative = inhibition [5]
41 | C=C[C@H]1[C@H](O[C@@H]2O[C@H](CO)[C@@H](O)[C@H](O)[C@H]2O)OC=C2C(=O)OCC[C@H]21 | 4.73% | 9.72% | 6.85% | -2.79% | 7.47%
42 | Cc1ccc(C)c(NC(=O)N2Cc3ccccc3-n3cccc3C2c2ccccc2)c1 (stereo unspecified) | 3.12% | 3.55% | -3.88% | -2.77% | 1.89%
43 | O=C(NC1CCCCC1)OC[C@H]1C[C@@H]2CCN1C[C@@H]2c1cc(C2CCCC2)nc(-c2ccncc2)n1 | -23% | -14.7% | -36.9% | -44.1% | -4.42%
44 | Cc1ccc(NC(=O)N2Cc3ccccc3-n3cccc3C2C(C)C)cc1F (stereo unspecified) | 3.71% | 2.27% | 7.98% | 8.5% | 10.9%
45 | COCC1CN(C)CC12CCN(C(=O)c1cncc(C)c1)CC2 (stereo unspecified) | -1.89% | -0.107% | -4.5% | 2.96% | 4.55%
46 | CCOc1ccccc1NC(=O)N1Cc2ccccc2-n2cccc2C1C (stereo unspecified) | -4.53% | 1.58% | 7.36% | 6.36% | 9.55%
47 | N#CC(C#N)=Cc1ccc(O)c(O)c1 | -37.2% | 10.4% | 0.475% | -4% | 7.68%
48 | CC(=O)O[C@@H]1[C@H]2CC[C@H]3[C@@](C)(O)[C@@H]4C[C@H](O)C(C)(C)[C@@]4(O)[C@H](O)C[C@@]13C[C@@]2(C)O | 0% | 2% | 7.04% | -8.33% | 0.198%
49 | CC(C)(C)c1cc(C(C)(C)C)c2c(c1)C(O)(C(F)(F)F)C(=O)O2 (stereo unspecified) | -6.35% | -22.4% | -3.42% | -36.4% | -0.859%
50 | COc1ccc2[nH]c3c(c2c1)CCNC3 | -5.32% | -5.1% | -37% | -15.7% | -9.39%
51 | COc1ccc(S(=O)(=O)N2C[C@@H]3C[C@H](C2)c2c(-c4cccs4)ccc(=O)n2C3)cc1 | -6.7% | -9.17% | -5.21% | -17% | 7.59%
52 | Cc1cccc(C)c1NC(=O)CN1CCCC1=O | 7.15% | 12.8% | 5.11% | 0.885% | 10.9%
53 | C=C1C(=O)OC2/C=C(\COO)CC/C=C(\COC(C)=O)CC(OC(=O)C(C)CC)C12 (stereo unspecified) | 4.1% | 5.64% | 6.01% | -6.35% | 6.91%
54 | COc1ccc(C2c3cccn3-c3ccccc3CN2C(=O)Nc2ccc(OC)cc2OC)cc1 (stereo unspecified) | 4% | 2.27% | -6.44% | -3.7% | 0.728%
55 | CCN1C[C@]2(COC)CC[C@H](O)[C@@]34C5C[C@@H]6[C@@H](OC)C[C@@](OC(C)=O)(C5[C@@H]6OC(C)=O)[C@H]([C@H](OC)C23)[C@@H]14 (stereo partly specified) | -5.51% | -12.4% | -3.78% | -18.2% | -5.55%
56 | O=C(Nc1ccc2n(c1=O)C[C@H]1C[C@@H]2CN(c2ncccn2)C1)c1ccccc1 | -7.22% | -8.92% | -12.5% | -11.2% | -8.86%
57 | NC(=O)CI | -53.9% | 14.4% | 9.56% | 1.17% | 3.25%
58 | CCCSc1ncc(CN2CC[C@H]3CNC[C@H]32)cn1 | -2.13% | 0.734% | -2.73% | -3.14% | -4.57%
59 | COc1cccc(CNC(=O)N2Cc3ccccc3-n3cccc3C2c2ccc(SC)cc2)c1 (stereo unspecified) | 1.3% | 0% | 1.41% | -0.954% | 3.87%
